Test results reported in patent US11807625B2, “Capsid inhibitors for the prevention of HIV” (Gilead Sciences, Inc., priority 2019, dated 2023).
Where “and” joins values, the source holds several entries; their conditions need not be identical. Equal values may be shown once. Further values from the same series stand in other lists.

Experiment: PK of compound of Formula (Ia) after single subcutaneous dose of solution formulations in Wistar Han rats
Type: in vivo
Settings: individual rats, SC 50 mg/kg
Method: Formulations containing the compound of Formula (Ia), or a pharmaceutically acceptable salt thereof, were prepared as solutions and optionally administered subcutaneously or intramuscularly to rats, rabbits, and/or dogs.
(§1) A solution of about 400 mg/mL of the compound of Formula (Ia) having 19.14 w/w % water, 40.66 w/w % PEG 300, 35.20 w/w % of a sodium salt of a compound of Formula (Ia), and 5.00% ethanol was prepared. The solution was administered subcutaneously to male Wistar Han rats at a dose level of about 50 mg/kg and dose volume of 0.125 mL/kg and the pharmacokinetic (PK) profile was determined.
as §1, with “500” for “400”, “16.64” for “19.14”, “35.36” for “40.66”, “43.00” for “35.20”, “0.1” for “0.125”
(§2) A solution of about 400 mg/mL of the compound of Formula (Ia) having 17.00 w/w % water, 36.40 w/w % PEG 300, 35.20 w/w % of a sodium salt of a compound of Formula (Ia), 5.00 w/w % ethanol, and 6.40 w/w % poloxamer 188 was prepared. The solution was administered subcutaneously to male beagle dogs at a dose level of about 12 mg/kg and male Wistar Han rats at a dose level of about 50 mg/kg. The pharmacokinetic profiles were determined, and the results for dogs are summarized in Table and Table, while the results for rats are summarized in Table and Table below.
as §2, with “500” for “400”, “14.06” for “17.00”, “30.12” for “36.40”
A solution of about 300 mg/mL of the compound of Formula (Ia) having 23.33 w/w % water, 48.99 w/w % PEG 300, 26.47 w/w % of a sodium salt of a compound of Formula (Ia), and 1.21 w/w % poloxamer 188 was prepared. The solution was administered subcutaneously to male beagle dogs at a dose level of about 6 mg/kg and male Wistar Han rats at a dose level of about 50 mg/kg. The pharmacokinetic profiles were determined, and the results for dogs are summarized in Table and Table, while the results for rats are summarized in Table and Table below.
as §2, with “18.80” for “17.00”, “40.25” for “36.40”, “34.38” for “35.20”, “1.57” for “6.40”
as §2, with “500” for “400”, “16.29” for “17.00”, “34.88” for “36.40”, “41.92” for “35.20”, “1.91” for “6.40”
A solution of about 400 mg/mL of the compound of Formula (Ia) having 20.90 w/w % water, 44.72 w/w % PEG 300, and 34.38 w/w % of a sodium salt of a compound of Formula (Ia) was prepared. […]

## CC(C)(C#Cc1ccc(-c2ccc(Cl)c3c(NS(C)(=O)=O)nn(CC(F)(F)F)c23)c([C@H](Cc2cc(F)cc(F)c2)NC(=O)Cn2nc(C(F)(F)F)c3c2C(F)(F)[C@@H]2C[C@H]32)n1)S(C)(=O)=O [compound of Formula (Ia)]
1.00 h, solution S, 500 mg/mL
  Plasma concentration: 37.7 nM and 33.8 nM and 76.1 nM
1.00 h, solution T, 400 mg/mL
  Plasma concentration: 32.9 nM and 54.4 nM and 38.0 nM and 67.5 nM and 89.1 nM
1.00 h, solution U, 500 mg/mL
  Plasma concentration: 53.6 nM and 48.0 nM and 66.8 nM and 41.7 nM
1.00 h, solution V, 300 mg/mL
  Plasma concentration: 48.4 nM and 54.4 nM
3.00 h, solution T, 400 mg/mL
  Plasma concentration: 113 nM and 129 nM and 156 nM and 149 nM
3.00 h, solution U, 500 mg/mL
  Plasma concentration: 123 nM and 74.2 nM and 81.3 nM and 164 nM and 108 nM
3.00 h, solution V, 300 mg/mL
  Plasma concentration: 109 nM and 97.1 nM
8.00 h, solution T, 400 mg/mL
  Plasma concentration: 173 nM and 232 nM and 171 nM and 185 nM
8.00 h, solution U, 500 mg/mL
  Plasma concentration: 106 nM and 107 nM and 168 nM and 154 nM
8.00 h, solution V, 300 mg/mL
  Plasma concentration: 142 nM and 153 nM
24.0 h, solution T, 400 mg/mL
  Plasma concentration: 548 nM and 250 nM and 444 nM and 233 nM and 221 nM
24.0 h, solution U, 500 mg/mL
  Plasma concentration: 178 nM and 196 nM and 214 nM and 230 nM
24.0 h, solution V, 300 mg/mL
  Plasma concentration: 169 nM and 189 nM
48.0 h, solution T, 400 mg/mL
  Plasma concentration: 562 nM and 212 nM and 398 nM and 172 nM and 190 nM
48.0 h, solution U, 500 mg/mL
  Plasma concentration: 279 nM and 172 nM and 138 nM and 218 nM and 246 nM
48.0 h, solution V, 300 mg/mL
  Plasma concentration: 138 nM and 187 nM
72.0 h, solution T, 400 mg/mL
  Plasma concentration: 204 nM and 319 nM and 181 nM and 178 nM
72.0 h, solution U, 500 mg/mL
  Plasma concentration: 298 nM and 157 nM and 138 nM and 181 nM and 210 nM
72.0 h, solution V, 300 mg/mL
  Plasma concentration: 116 nM and 142 nM
96.0 h, solution T, 400 mg/mL
  Plasma concentration: 366 nM and 228 nM and 294 nM and 177 nM and 134 nM
96.0 h, solution U, 500 mg/mL
  Plasma concentration: 137 nM and 130 nM and 169 nM and 170 nM
96.0 h, solution V, 300 mg/mL
  Plasma concentration: 90.1 nM and 155 nM
168 h, solution T, 400 mg/mL
  Plasma concentration: 214 nM and 231 nM and 203 nM and 125 nM and 89.9 nM
168 h, solution U, 500 mg/mL
  Plasma concentration: 195 nM and 139 nM and 75.3 nM and 187 nM and 175 nM
168 h, solution V, 300 mg/mL
  Plasma concentration: 80.1 nM and 132 nM
336 h, solution T, 400 mg/mL
  Plasma concentration: 205 nM and 529 nM and 195 nM and 241 nM and 102 nM
336 h, solution U, 500 mg/mL
  Plasma concentration: 185 nM and 211 nM and 63.2 nM and 474 nM and 285 nM
336 h, solution V, 300 mg/mL
  Plasma concentration: 170 nM and 238 nM
504 h, solution T, 400 mg/mL
  Plasma concentration: 168 nM and 627 nM and 178 nM and 345 nM and 187 nM
504 h, solution U, 500 mg/mL
  Plasma concentration: 231 nM and 288 nM and 96.8 nM and 592 nM and 307 nM
504 h, solution V, 300 mg/mL
  Plasma concentration: 210 nM and 343 nM
672 h, solution T, 400 mg/mL
  Plasma concentration: 123 nM and 603 nM and 149 nM and 387 nM and 229 nM
672 h, solution U, 500 mg/mL
  Plasma concentration: 203 nM and 256 nM and 114 nM and 614 nM and 292 nM
672 h, solution V, 300 mg/mL
  Plasma concentration: 275 nM and 375 nM
840 h, solution T, 400 mg/mL
  Plasma concentration: 101 nM and 441 nM and 93.2 nM and 251 nM and 189 nM
840 h, solution U, 500 mg/mL
  Plasma concentration: 132 nM and 316 nM and 171 nM and 431 nM and 254 nM
840 h, solution V, 300 mg/mL
  Plasma concentration: 278 nM and 362 nM
1008 h, solution T, 400 mg/mL
  Plasma concentration: 69.5 nM and 426 nM and 77.2 nM and 230 nM and 231 nM
1008 h, solution U, 500 mg/mL
  Plasma concentration: 118 nM and 358 nM and 230 nM and 419 nM and 295 nM
1008 h, solution V, 300 mg/mL
  Plasma concentration: 221 nM and 126 nM and 427 nM
1344 h, solution T, 400 mg/mL
  Plasma concentration: 74.9 nM and 262 nM and 58.9 nM and 211 nM and 189 nM
1344 h, solution U, 500 mg/mL
  Plasma concentration: 84.8 nM and 256 nM and 231 nM and 289 nM and 270 nM
1344 h, solution V, 300 mg/mL
  Plasma concentration: 282 nM and 350 nM
1680 h, solution T, 400 mg/mL
  Plasma concentration: 161 nM and 52.9 nM and 172 nM and 193 nM
1680 h, solution U, 500 mg/mL
  Plasma concentration: 69.2 nM and 293 nM and 199 nM and 254 nM and 177 nM
1680 h, solution V, 300 mg/mL
  Plasma concentration: 246 nM and 284 nM
2016 h, solution T, 400 mg/mL
  Plasma concentration: 110 nM and 63.7 nM and 194 nM (2×)
2016 h, solution U, 500 mg/mL
  Plasma concentration: 54.7 nM and 255 nM and 177 nM and 212 nM and 171 nM
2016 h, solution V, 300 mg/mL
  Plasma concentration: 191 nM and 213 nM
2352 h, solution T, 400 mg/mL
  Plasma concentration: 90.5 nM and 66.8 nM and 161 nM and 150 nM
2352 h, solution U, 500 mg/mL
  Plasma concentration: 64.0 nM and 171 nM and 207 nM and 223 nM and 168 nM
2352 h, solution V, 300 mg/mL
  Plasma concentration: 176 nM and 197 nM
2688 h, solution T, 400 mg/mL
  Plasma concentration: 49.6 nM and 372 nM and 151 nM and 77.2 nM
2688 h, solution U, 500 mg/mL
  Plasma concentration: 42.3 nM and 142 nM and 125 nM and 115 nM and 118 nM
2688 h, solution V, 300 mg/mL
  Plasma concentration: 155 nM and 156 nM
3024 h, solution S, 500 mg/mL
  Plasma concentration: 116 nM and 81.8 nM
3024 h, solution T, 400 mg/mL
  Plasma concentration: 44.3 nM and 261 nM and 138 nM and 78.8 nM
3024 h, solution U, 500 mg/mL
  Plasma concentration: 39.5 nM and 148 nM and 97.7 nM and 113 nM (2×)
3024 h, solution V, 300 mg/mL
  Plasma concentration: 121 nM and 94.9 nM
3360 h, solution S, 500 mg/mL
  Plasma concentration: 118 nM and 77.5 nM
3360 h, solution T, 400 mg/mL
  Plasma concentration: 38.5 nM and 227 nM and 119 nM and 85.4 nM
3360 h, solution U, 500 mg/mL
  Plasma concentration: 32.2 nM and 135 nM and 79.2 nM and 93.6 nM and 100 nM
3360 h, solution V, 300 mg/mL
  Plasma concentration: 74.6 nM and 76.5 nM
3696 h, solution S, 500 mg/mL
  Plasma concentration: 105 nM and 69.1 nM
3696 h, solution T, 400 mg/mL
  Plasma concentration: 27.1 nM and 126 nM and 72.8 nM and 68.7 nM
3696 h, solution U, 500 mg/mL
  Plasma concentration: 34.7 nM and 98.8 nM and 73.3 nM and 75.1 nM and 70.7 nM
3696 h, solution V, 300 mg/mL
  Plasma concentration: 62.3 nM and 70.7 nM
4032 h, solution S, 500 mg/mL
  Plasma concentration: 133 nM and 78.3 nM
4032 h, solution T, 400 mg/mL
  Plasma concentration: 30.4 nM and 124 nM and 63.6 nM and 68.0 nM
4032 h, solution U, 500 mg/mL
  Plasma concentration: 33.9 nM and 112 nM and 58.5 nM and 61.8 nM and 62.1 nM
4032 h, solution V, 300 mg/mL
  Plasma concentration: 55.8 nM and 44.5 nM
4704 h, solution S, 500 mg/mL
  Plasma concentration: 96.4 nM and 55.2 nM
4704 h, solution T, 400 mg/mL
  Plasma concentration: 15.9 nM and 71.3 nM and 31.7 nM and 58.1 nM
4704 h, solution U, 500 mg/mL
  Plasma concentration: 25.7 nM and 69.8 nM and 30.2 nM and 48.8 nM and 41.2 nM
4704 h, solution V, 300 mg/mL
  Plasma concentration: 31.3 nM and 23.4 nM
5376 h, solution S, 500 mg/mL
  Plasma concentration: 59.7 nM and 78.6 nM and 38.1 nM
5376 h, solution T, 400 mg/mL
  Plasma concentration: 12.7 nM and 57.9 nM and 21.5 nM and 45.6 nM
